# Data from PubChem BioAssay (Tox21).
# Several values for one entry are separate records, joined by “and”; a condition that tells them apart may be missing. Equal values may be shown once. This list was built around the results that the source calls inconclusive (neither active nor inactive); the mix of calls is not that of the screen. Where the call is inconclusive, the potency comes from a doubtful curve fit. Where a structure was tested more than once in an assay, its records may differ in their call. Activity calls are given as the source filed them. Unless noted, calls follow the shape of the dose curve; as a rule, active = well fitted curve in the direction sought with a large enough effect in the repeat runs; inconclusive = weak or mixed curves; inactive = no such curve, though single readings can be large; an effect the other way counts as inactive or inconclusive.
# What was measured:
# [1] = A CellTox Green Cytotoxicity Assay to monitor cytotoxicity in HEK293 cells - 32 hour (AID 1224881); also: nearly all actives have a fitted effect of over 40% in size
# In short: (§1)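 Read-out: fluorescence of a cell-impermeant cyanine dye staining DNA of dead cells, proportional to cytotoxicity. HEK293, 600 cells/well with reagent, compound (23 nL DMSO) added after 5 h; reads at 0, 8, 16, 24, 32, 40 h.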
# [2] = A CellTox Green Cytotoxicity Assay to monitor cytotoxicity in HepG2 cells - 32 hour (AID 1224883); also: nearly all actives have a fitted effect of over 50% in size
# In short: (§2)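 HepG2, 600 cells/well premixed w/ CellTox Green; 5 h settle, 37 C/5% CO2; pintool cpd add (DMSO); 37 C, 40 h; fluorescence read at 0, 8, 16, 24, 32, 40 h.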
# [3] = molecular target: Androgen receptor (Homo sapiens) (UniProt P10275); experiment: qHTS assay to identify small molecule antagonists of the androgen receptor (AR) signaling pathway using the MDA cell line in the presence of 0.5 nM R1881 (AID 1259243); also: nearly all actives have a fitted effect of over 50% in size
# Chain of UniProt P10275 (P10275 whole entry, looked up): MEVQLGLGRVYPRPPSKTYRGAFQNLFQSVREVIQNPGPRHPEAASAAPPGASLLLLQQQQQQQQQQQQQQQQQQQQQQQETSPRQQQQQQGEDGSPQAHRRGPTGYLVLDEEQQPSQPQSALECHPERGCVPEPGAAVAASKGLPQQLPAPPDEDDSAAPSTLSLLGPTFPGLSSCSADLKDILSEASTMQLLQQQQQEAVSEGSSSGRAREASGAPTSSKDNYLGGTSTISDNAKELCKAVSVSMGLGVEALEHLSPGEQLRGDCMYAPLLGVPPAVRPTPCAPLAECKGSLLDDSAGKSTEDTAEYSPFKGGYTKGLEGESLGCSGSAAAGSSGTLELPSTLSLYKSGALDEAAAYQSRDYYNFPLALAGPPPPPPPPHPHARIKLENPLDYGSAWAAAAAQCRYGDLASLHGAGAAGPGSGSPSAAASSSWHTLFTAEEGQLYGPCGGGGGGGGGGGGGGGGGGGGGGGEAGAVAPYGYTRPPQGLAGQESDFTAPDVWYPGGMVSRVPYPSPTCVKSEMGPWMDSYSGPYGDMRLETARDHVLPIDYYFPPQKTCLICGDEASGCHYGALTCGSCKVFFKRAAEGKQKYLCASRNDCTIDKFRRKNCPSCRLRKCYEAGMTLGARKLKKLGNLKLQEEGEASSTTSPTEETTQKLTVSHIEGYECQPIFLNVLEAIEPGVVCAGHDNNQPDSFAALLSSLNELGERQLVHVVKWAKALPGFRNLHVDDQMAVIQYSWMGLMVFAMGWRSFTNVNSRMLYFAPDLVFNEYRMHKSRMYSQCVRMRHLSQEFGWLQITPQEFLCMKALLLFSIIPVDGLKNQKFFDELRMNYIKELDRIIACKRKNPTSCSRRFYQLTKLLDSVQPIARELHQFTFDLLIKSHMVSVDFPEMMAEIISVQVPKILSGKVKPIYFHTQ
# In short: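 MDA-kb2, MMTV-luc (AR/GR elements); 3,000 cells/well; cpd + 0.5 nM R1881 final; 16 hr 37C, 0% CO2; ONE-Glo 30 min RT; luminescence.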
# [4] = qHTS RealTime-Glo MT Cell Viability Assay in HepG2 cells - 16 hour (AID 1224885); also: nearly all actives have a fitted effect of over 50% in size; as to activity change, negative = cytotoxic: % is scaled to controls: 0 for no effect and ±100 for the full control effect
# In short: (§3)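 Real-time, nonlytic viability: 600 HepG2 cells/well mixed with NanoLuc enzyme plus prosubstrate; 5 h settle, compound (DMSO) added by pintool; luminescence monitored over 40 h at 37 C.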
# [5] = qHTS assay to identify small molecule antagonists of the sonic hedgehog signaling (Shh) pathway - cell viability counter screen (AID 1259367); also: nearly all actives have a fitted effect of over 55% in size
# In short: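 Viability was read by CellTiter-Fluor fluorescence in the same wells, reagent added 23 hr into compound treatment and incubated 1 hr at 37C. The 3T3 Gli1-Luc reporter cells (2,000/well) received conditioned medium after compound and ran 24 hr.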
# [6] = A CellTox Green Cytotoxicity Assay to monitor cytotoxicity in HEK293 cells - 8 hour (AID 1224884); also: nearly all actives have a fitted effect of over 35% in size
# In short: as §1
# [7] = A CellTox Green Cytotoxicity Assay to monitor cytotoxicity in HEK293 cells - 16 hour (AID 1224888); also: nearly all actives have a fitted effect of over 35% in size; as to activity change: % is scaled to controls: 0 for no effect and ±100 for the full control effect
# In short: as §1
# [8] = qHTS assay to identify small molecule agonists of the sonic hedgehog signaling (Shh) pathway - cell viability counter screen (AID 1259366); also: nearly all actives have a fitted effect of over 50% in size
# In short: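 Cytotoxicity counter screen: CellTiter-Fluor reagent added after 23 h compound exposure, then 1 h at 37C and fluorescence read. Cells were 3T3 Gli1-Luc, seeded 2,000 per well and dosed 4 h post-plating.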
# [9] = qHTS RealTime-Glo MT Cell Viability Assay in HEK293 cells - 24 hour (AID 1224886); also: nearly all actives have a fitted effect of over 50% in size
# In short: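 Cells + reagent dispensed (600 cells/well, HEK293) → 5 h at 37 C/5% CO2 → 23 nL compound in DMSO pinned → 40 h at 37 C → luminescence read at 0, 8, 16, 24, 32, 40 h.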
# [10] = qHTS RealTime-Glo MT Cell Viability Assay in HEK293 cells - 8 hour (AID 1224887); also: nearly all actives have a fitted effect of over 50% in size
# In short: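 Luminescence readout at each listed time point; HEK293, 600 cells/well, RealTime-Glo MT reagent added with cells; compounds pinned (23 nL in DMSO) after 5 h at 37 C; continuous culture at 37 C.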
# [11] = qHTS assay to identify small molecule antagonists of the estrogen receptor alpha (ER-alpha) signaling pathway using the BG1 cell line in the presence of 0.1 nM 17-beta-estradiol - cell viability counter screen (AID 1259241); also: nearly all actives have a fitted effect of over 40% in size
# In short: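 Cytotoxicity counter-screen: live-cell protease activity measured by fluorescence (30 min reagent step) in the same wells. Cells were VM7Luc4E2 with endogenous ER-alpha and ERE-driven luciferase, treated 22 hr at 37C alongside 0.1 nM 17beta-estradiol final.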
# [12] = qHTS assay to identify small molecule antagonists of the androgen receptor (AR) signaling pathway using the MDA cell line in the presence of 0.5 nM R1881 - cell viability counter screen (AID 1259242); also: nearly all actives have a fitted effect of over 45% in size
# In short: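 Live-cell protease fluorescence, CellTiter-Fluor, 30 min at 37C. Cells: MDA-kb2, 3,000/well, preincubated 5 hr. Compounds plus 0.5 nM R1881 final, 16 hr, 37C, 0% CO2.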
# [13] = qHTS assay to identify small molecule phospholipidosis (PLD) inducers (AID 1259344; active = well fitted curve in the direction sought with a large enough effect; inconclusive = small, poorly fitted or top-dose-only effect, or another doubt; inactive = no such curve, though single readings can be large; an effect the other way counts as inactive or inconclusive; as to PLD induction: % is scaled to controls: 0 for no effect and ±100 for the full control effect); conditions: HepG2 phospholipidosis, LipidTOX Red imaging, 24 h; PLD induction: at 38.3 µM (top of the series) unless noted
# In short: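 Phospholipid accumulation was scored by imaging: fixed, Hoechst-counterstained HepG2 cells stained with LipidTOX Red after 24 h compound exposure at 37 C. Read-outs were pit count and pit intensity per well or per cell, with amiodarone and DMSO controls.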
# [14] = qHTS assay to identify small molecule HDAC inhibitors (AID 1259364);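 also: wild-type HCT-116 cells with endogenous class I/II HDAC activity; nearly all actives have a fitted effect of over 45% in size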
# In short: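 HCT-116 (wild type), 1,500 cells/well, overnight; compound 2 hr 37C 5% CO2; HDAC-Glo I/II reagent 30 min RT; luminescence readout.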
# [15] = qHTS RealTime-Glo MT Cell Viability Assay in HepG2 cells - 0 hour (AID 1224889); also: nearly all actives have a fitted effect of over 50% in size
# In short: as §3
# [16] = A CellTox Green Cytotoxicity Assay to monitor cytotoxicity in HepG2 cells - 8 hour (AID 1224890); also: nearly all actives have a fitted effect of over 45% in size
# In short: as §2
# Potency is read from the fitted curve at half-maximal effect; tags tell the direction and shape of the fitted curve.
smiles,measurement,setting,value
O=C1CCCCCCCCCCCC(=O)OCCO1,Potency,[1],"inconclusive: 49 µM [activator, single point]"
same,Potency,[2],"inconclusive: 49 µM [activator, partial curve]"
same,Potency,[3],inactive
C/C=C/C(=O)CC,Potency,[1],"inconclusive: 0.0335 µM [activator, single point]"
same,"activity change, negative = cytotoxic",[4],inactive: 0.412% [at 15.8 µM]
same,Potency,[5],"inconclusive: 11.8 µM [cytotoxic, single point]"
CC1=C2[C@H](/C=C(\C)C(=O)O)CC[C@@H](C)[C@H]2CC1,Potency,[1],"inconclusive: 57 µM [activator, single point]"
same,Potency,[6],"inconclusive: 57 µM [activator, single point]"
same,Potency,[7],"inconclusive: 63.9 µM [activator, single point]"
same,Potency,[8],inconclusive: 71.1 µM [cytotoxic]
same,Potency,[5],"inconclusive: 79.8 µM [cytotoxic, partial curve, poor fit]"
c1ccc2c(c1)ccc1ccccc12,Potency,[1],"inconclusive: 53.5 µM [activator, single point] and inconclusive: 49 µM [activator, partial curve, poor fit]"
same,Potency,[2],"inconclusive: 54.9 µM [activator, single point]"
same,Potency,[9],"inconclusive: 17.4 µM [cytotoxic, partial curve, poor fit]"
same,Potency,[10],"inconclusive: 54.9 µM [cytotoxic, single point]"
same,Potency,[3],inconclusive: 26.6 µM [inhibitor]
CC(C)(C#N)Nc1nc(Cl)nc(NC2CC2)n1,Potency,[1],inactive
same,Potency,[6],"inconclusive: 54.9 µM [activator, single point]"
CC(C)CCCCCCOC(=O)CCCCC(=O)OCCCCCCC(C)C,Potency,[1],"inconclusive: 24.5 µM [activator, single point]"
same,Potency,[6],inactive
O=C(O)c1c2ccccc2cc2ccccc12,Potency,[1],"inconclusive: 34.6 µM [activator, partial curve]"
same,Potency,[9],"inconclusive: 43.5 µM [cytotoxic, partial curve]"
O=C(CCC1CCN(Cc2ccccc2)CC1)c1ccc2c(c1)NCCCC2,Potency,[1],"inconclusive: 42.5 µM [activator, single point]"
same,Potency,[2],"inconclusive: 21.3 µM [activator, partial curve, poor fit]"
same,Potency,[9],active: 9.52 µM
same,Potency,[8],inactive
OCc1cc(C(O)CNCCCCCCOCCCCc2ccccc2)ccc1O (configuration not stated),Potency,[1],"inconclusive: 26.8 µM [activator, single point]"
same,Potency,[2],active: 23.9 µM
same,Potency,[4],"inconclusive: 23.9 µM [cytotoxic, partial curve, poor fit]"
same,Potency,[9],active: 19 µM
same,Potency,[10],"inconclusive: 9.52 µM [cytotoxic, partial curve]"
same,Potency,[11],"inconclusive: 15 µM [cytotoxic, partial curve]"
same,Potency,[12],inconclusive: 29.8 µM [cytotoxic]
same,Potency,[13],"inconclusive: 11.2 µM [activator, partial curve, poor fit] and inconclusive: 5.01 µM [activator, single point]"
same,Potency,[14],"inconclusive: 26.6 µM [inhibitor, partial curve, poor fit]"
same,Potency,[8],active: 3.76 µM
Nc1nccs1,Potency,[1],"inconclusive: 61.6 µM [activator, single point]"
same,Potency,[6],"inconclusive: 61.6 µM [activator, partial curve, poor fit]"
same,Potency,[7],"inconclusive: 61.6 µM [activator, single point]"
same,Potency,[5],inactive
C=CC(=O)OCC(C)OCC(C)OCC(C)OC(=O)C=C (configuration not stated),Potency,[1],active: 54.9 µM
same,Potency,[4],"inconclusive: 24.5 µM [cytotoxic, partial curve]"
same,Potency,[5],active: 48.6 µM
CCC(C)c1cc(C(C)(C)C)c(O)c(C(C)(C)C)c1 (configuration not stated),Potency,[1],"inconclusive: 24.1 µM [activator, full curve, poor fit]"
same,Potency,[6],"inconclusive: 53.9 µM [activator, single point]"
same,Potency,[7],"inconclusive: 38.2 µM [activator, partial curve, poor fit]"
CC(C)(C)[C@@H](O)[C@@H](Cc1ccc(Cl)cc1)n1cncn1,Potency,[1],inactive
same,Potency,[6],"inconclusive: 21.9 µM [activator, single point]"
same,Potency,[10],"inconclusive: 61.2 µM [cytotoxic, partial curve, poor fit]"
same,Potency,[15],inactive
COc1ccc(C(=O)Nc2nc3ccccc3c(NCc3ccccc3)c2C#N)cc1,Potency,[1],inactive
same,Potency,[4],"inconclusive: 24.5 µM [cytotoxic, partial curve]"
same,Potency,[9],inactive
same,Potency,[8],"inconclusive: 6.86 µM [cytotoxic, full curve]"
same,Potency,[5],"inconclusive: 3.86 µM [cytotoxic, full curve]"
CCOC(=O)C1CC(=O)C(=C(O)C2CC2)C(=O)C1 (configuration not stated),Potency,[1],inactive
same,Potency,[6],"inconclusive: 49 µM [activator, partial curve, poor fit]"
CC(S)C(=O)NCC(=O)O (configuration not stated),Potency,[1],"inconclusive: 23.9 µM [activator, single point]"
same,Potency,[6],"inconclusive: 26.8 µM [activator, partial curve, poor fit]"
same,Potency,[7],"inconclusive: 23.9 µM [activator, single point]"
CC[C@]12CCCN3CCc4c(n(c5ccccc45)C(=O)C1)[C@@H]32,Potency,[1],inactive
same,Potency,[2],active: 6.74 µM
same,Potency,[10],"inconclusive: 10.7 µM [cytotoxic, partial curve]"
same,Potency,[5],"inconclusive: 15 µM [cytotoxic, partial curve]"
Cc1ccc2c(Cl)cc(Cl)c(O)c2n1,Potency,[1],inactive
same,Potency,[6],inactive
Nc1cccc(C(F)(F)F)c1,Potency,[1],"inconclusive: 45 µM [activator, partial curve, poor fit]"
same,Potency,[6],active: 40.1 µM
same,Potency,[7],"inconclusive: 25.3 µM [activator, partial curve]"
O=C1c2ccccc2CCc2ccccc21,Potency,[1],"inconclusive: 56.1 µM [activator, single point]"
same,Potency,[6],"inconclusive: 56.1 µM [activator, single point]"
same,Potency,[7],"inconclusive: 56.1 µM [activator, single point]"
same,Potency,[12],inactive
same,Potency,[14],"inconclusive: 18.8 µM [inhibitor, partial curve]"
O=C1NCCN1,Potency,[1],"inconclusive: 2.96 µM [activator, partial curve, poor fit]"
same,Potency,[2],inactive
same,Potency,[7],"inconclusive: 4.18 µM [activator, partial curve]"
CCN(CC)CCOc1ccc2c(c1)C(=O)c1cc(OCCN(CC)CC)ccc1-2,Potency,[1],"inconclusive: 26.8 µM [activator, single point]"
same,Potency,[2],"inconclusive: 26.8 µM [activator, single point]"
same,Potency,[12],"inconclusive: 10.6 µM [cytotoxic, partial curve]"
same,Potency,[13],"inconclusive: 11.2 µM [activator, single point]"
CC(=O)Nc1ccc(OC(=O)c2ccccc2OC(C)=O)cc1,Potency,[1],"inconclusive: 12 µM [activator, single point]"
same,Potency,[6],inactive
same,Potency,[7],"inconclusive: 19 µM [activator, single point]"
CC(C)OP(=O)(CP(=O)(OC(C)C)OC(C)C)OC(C)C,Potency,[1],"inconclusive: 54.9 µM [activator, single point]"
same,Potency,[6],"inconclusive: 54.9 µM [activator, partial curve, poor fit]"
same,Potency,[10],inactive
same,Potency,[7],inactive
same,Potency,[16],inactive
O=C(Nc1ccc([N+](=O)[O-])cc1)Nc1ccc([N+](=O)[O-])cc1,Potency,[1],"inconclusive: 10.7 µM [activator, full curve, poor fit]"
same,Potency,[4],"inconclusive: 12 µM [cytotoxic, partial curve, poor fit]"
same,Potency,[10],"inconclusive: 10.7 µM [cytotoxic, single point]"
same,Potency,[8],"inconclusive: 7.5 µM [rising, partial curve]"
COCCCOc1ccnc(CS(=O)c2nc3ccccc3[nH]2)c1C (configuration not stated),Potency,[1],"inconclusive: 61.4 µM [activator, single point]"
same,Potency,[4],inactive
same,Potency,[12],"inconclusive: 54.3 µM [cytotoxic, partial curve]"
CC(C)(N)C#N,Potency,[1],inactive
same,Potency,[4],inactive
CC1(C)C(O)C(C)(C)C1O (configuration not stated),Potency,[1],inactive
same,Potency,[8],inactive
C=CCOc1cc(Cl)ccc1C(=O)NCCN(CC)CC,Potency,[1],"inconclusive: 5.35 µM [activator, single point]"
same,Potency,[9],inactive
same,Potency,[13],"inconclusive: 20 µM [activator, partial curve, poor fit]"
CCCCS(=O)(=O)N[C@@H](Cc1ccc(OCCCCC2CCNCC2)cc1)C(=O)O,Potency,[1],"inconclusive: 0.0849 µM [activator, partial curve, poor fit]"
same,Potency,[10],inactive
same,PLD induction,[13],inactive: -2.88% [at 1.53 µM]
Cc1ccc(S(=O)(=O)NCl)cc1,Potency,[1],inactive
same,Potency,[7],inactive
same,Potency,[15],"inconclusive: 65.2 µM [cytotoxic, partial curve, poor fit]"
CCOc1ccc2c(c1)C(C)CC(C)(C)N2 (configuration not stated),Potency,[1],"inconclusive: 21.9 µM [activator, partial curve]"
same,Potency,[16],"inconclusive: 49 µM [activator, single point]"
O=C(c1ccccc1)c1ccc2n1CCC2C(=O)O (configuration not stated),Potency,[1],inactive
same,Potency,[14],active: 7.5 µM
C#CC(C)N(C)C(=O)Nc1ccc(Cl)cc1 (configuration not stated),Potency,[1],inactive
same,Potency,[9],"inconclusive: 27.5 µM [cytotoxic, partial curve]"
same,Potency,[10],"inconclusive: 24.5 µM [cytotoxic, partial curve, poor fit]"
same,Potency,[16],inactive
same,Potency,[14],"inconclusive: 34.3 µM [inhibitor, partial curve]"
Cc1ccccc1C(=O)Nc1ccc(C(=O)N2CCCC(O)c3cc(Cl)ccc32)c(C)c1 (configuration not stated),Potency,[1],inactive
same,Potency,[9],"inconclusive: 19 µM [cytotoxic, partial curve]"
same,Potency,[10],"inconclusive: 21.3 µM [cytotoxic, partial curve, poor fit]"
same,Potency,[13],"inconclusive: 22.4 µM [activator, single point]"
